Experimental data taken from patent US20110064751A1 (Hoffmann-La Roche, published 2011).
Like-named read-outs stand apart in the source and are kept apart here. Blank lines part the entries; values can stand above or below the binder they belong to.

B5: heterodimeric human IL-2 receptor beta/gamma Fc fusion (knob-into-hole construct) (Fc fusion)
chain 1: AVNGTSQFTCFYNSRANISCVWSQDGALQDTSCQVHAWPDRRRWNQTCELLPVSQASWACNLILGAPDSQKLTTVDIVTLRVLCREGVRWRVMAIQDFKPFENLRLMAPISLQVVHVETHRCNISWEISQASHYFERHLEFEARTLSPGHTWEEAPLLTLKQKQEWICLETLTPDTQYEFQVRVKPLQGEFTTWSPWSQPLAFRTKPAALGKDTGAQ[sequence of human IgG1 Fc with changes omitted]
chain 2: LNTTILTPNGNEDTTADFFLTTMPTDSLSVSTLPLPEVQCFVFNVEYMNCTWNSSSEPQPTNLTLHYWYKNSDNDKVQKCSHYLFSEEITSGCQLQKKEIHLYQTFVVQLQDPREPRRQATQMLKLQNLVIPWAPENLTLHKLSESQLELNWNNRFLNHCLEHLVQYRTDWDHSWTEQSVDYRHKFSLPSVDGQKRYTFRVRSRFNPLCGSAQHWSEWSHPIHWGSNTSKENPFLFALEAGAQ[sequence of human IgG1 Fc with changes omitted]
notes: also called IL-2R b/g; hu IL-2R bg

How the values were obtained:
[1] = molecular target: T1, Extra Domain B of fibronectin (EDB) (UniProt P02751 1266-1356); experiment: BIACORE SPR, EDB immobilized on the chip, analyte at 1.56, 3.125 and 6.25 nM
T1 construct: domain: Extra Domain B; construct not described; also called fibronectin Ectodomain-B

[2] = molecular target: T1, Extra Domain B of fibronectin (EDB); experiment: as above; remark: listed apart in the source
[3] = molecular target: B5; experiment: BIACORE SPR, immobilized IL-2R, construct as analyte; apparent KD
[4] = molecular target: B5; experiment: BIACORE SPR summary table, column IL-2 Receptor
[5] = molecular target: B5; experiment: BIACORE SPR, immobilized IL-2R, construct as analyte; apparent KD; remark: listed apart in the source
[6] = molecular target: T2, commercially available IL-2 (Proleukin) (human, UniProt P60568); experiment: BIACORE SPR summary table, column IL-2 Receptor
T2 construct: also called unconjugated IL-2

[7] = molecular target: T2, commercially available IL-2 (Proleukin); experiment: BIACORE SPR, immobilized IL-2 receptor (beta Hole-gamma Knob), IL-2 as analyte
[8] = molecular target: B5; experiment: BIACORE SPR, immobilized IL-2R, construct as analyte; apparent KD; remark: listed apart in the source
[9] = molecular target: T3, A1 domain of tenascin (TNC-A1), immobilized domain of Example 1 (UniProt P24821 1072-1162, limits assumed); experiment: BIACORE SPR, immobilized TNC domain A1, construct as analyte; apparent KD
T3 construct: domain: A1; also called TNC-A1 domain
T3 sequence (looked up): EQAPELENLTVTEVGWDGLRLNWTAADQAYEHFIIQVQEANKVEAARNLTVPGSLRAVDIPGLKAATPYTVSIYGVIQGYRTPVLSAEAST

[10] = molecular target: T3, A1 domain of tenascin (TNC-A1), …; experiment: BIACORE SPR summary table, column Tenascin C domain A1
[11] = molecular target: T4, human Melanoma Chondroitin Sulfate Proteoglycan (MCSP) on Colo38 melanoma cells (human, UniProt Q6UVK1 30-2322); experiment: flow cytometry on MCSP-expressing Colo38 melanoma cells, detection with FITC goat anti-human F(ab')2
T4 construct: whole, on cells
Description: Briefly, cells were harvested, counted and checked for viability.

T1 sequence (P02751 1266-1356 limits assumed): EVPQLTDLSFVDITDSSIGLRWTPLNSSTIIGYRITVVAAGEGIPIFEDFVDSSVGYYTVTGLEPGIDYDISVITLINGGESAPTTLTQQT
T4 sequence (Q6UVK1 30-2322): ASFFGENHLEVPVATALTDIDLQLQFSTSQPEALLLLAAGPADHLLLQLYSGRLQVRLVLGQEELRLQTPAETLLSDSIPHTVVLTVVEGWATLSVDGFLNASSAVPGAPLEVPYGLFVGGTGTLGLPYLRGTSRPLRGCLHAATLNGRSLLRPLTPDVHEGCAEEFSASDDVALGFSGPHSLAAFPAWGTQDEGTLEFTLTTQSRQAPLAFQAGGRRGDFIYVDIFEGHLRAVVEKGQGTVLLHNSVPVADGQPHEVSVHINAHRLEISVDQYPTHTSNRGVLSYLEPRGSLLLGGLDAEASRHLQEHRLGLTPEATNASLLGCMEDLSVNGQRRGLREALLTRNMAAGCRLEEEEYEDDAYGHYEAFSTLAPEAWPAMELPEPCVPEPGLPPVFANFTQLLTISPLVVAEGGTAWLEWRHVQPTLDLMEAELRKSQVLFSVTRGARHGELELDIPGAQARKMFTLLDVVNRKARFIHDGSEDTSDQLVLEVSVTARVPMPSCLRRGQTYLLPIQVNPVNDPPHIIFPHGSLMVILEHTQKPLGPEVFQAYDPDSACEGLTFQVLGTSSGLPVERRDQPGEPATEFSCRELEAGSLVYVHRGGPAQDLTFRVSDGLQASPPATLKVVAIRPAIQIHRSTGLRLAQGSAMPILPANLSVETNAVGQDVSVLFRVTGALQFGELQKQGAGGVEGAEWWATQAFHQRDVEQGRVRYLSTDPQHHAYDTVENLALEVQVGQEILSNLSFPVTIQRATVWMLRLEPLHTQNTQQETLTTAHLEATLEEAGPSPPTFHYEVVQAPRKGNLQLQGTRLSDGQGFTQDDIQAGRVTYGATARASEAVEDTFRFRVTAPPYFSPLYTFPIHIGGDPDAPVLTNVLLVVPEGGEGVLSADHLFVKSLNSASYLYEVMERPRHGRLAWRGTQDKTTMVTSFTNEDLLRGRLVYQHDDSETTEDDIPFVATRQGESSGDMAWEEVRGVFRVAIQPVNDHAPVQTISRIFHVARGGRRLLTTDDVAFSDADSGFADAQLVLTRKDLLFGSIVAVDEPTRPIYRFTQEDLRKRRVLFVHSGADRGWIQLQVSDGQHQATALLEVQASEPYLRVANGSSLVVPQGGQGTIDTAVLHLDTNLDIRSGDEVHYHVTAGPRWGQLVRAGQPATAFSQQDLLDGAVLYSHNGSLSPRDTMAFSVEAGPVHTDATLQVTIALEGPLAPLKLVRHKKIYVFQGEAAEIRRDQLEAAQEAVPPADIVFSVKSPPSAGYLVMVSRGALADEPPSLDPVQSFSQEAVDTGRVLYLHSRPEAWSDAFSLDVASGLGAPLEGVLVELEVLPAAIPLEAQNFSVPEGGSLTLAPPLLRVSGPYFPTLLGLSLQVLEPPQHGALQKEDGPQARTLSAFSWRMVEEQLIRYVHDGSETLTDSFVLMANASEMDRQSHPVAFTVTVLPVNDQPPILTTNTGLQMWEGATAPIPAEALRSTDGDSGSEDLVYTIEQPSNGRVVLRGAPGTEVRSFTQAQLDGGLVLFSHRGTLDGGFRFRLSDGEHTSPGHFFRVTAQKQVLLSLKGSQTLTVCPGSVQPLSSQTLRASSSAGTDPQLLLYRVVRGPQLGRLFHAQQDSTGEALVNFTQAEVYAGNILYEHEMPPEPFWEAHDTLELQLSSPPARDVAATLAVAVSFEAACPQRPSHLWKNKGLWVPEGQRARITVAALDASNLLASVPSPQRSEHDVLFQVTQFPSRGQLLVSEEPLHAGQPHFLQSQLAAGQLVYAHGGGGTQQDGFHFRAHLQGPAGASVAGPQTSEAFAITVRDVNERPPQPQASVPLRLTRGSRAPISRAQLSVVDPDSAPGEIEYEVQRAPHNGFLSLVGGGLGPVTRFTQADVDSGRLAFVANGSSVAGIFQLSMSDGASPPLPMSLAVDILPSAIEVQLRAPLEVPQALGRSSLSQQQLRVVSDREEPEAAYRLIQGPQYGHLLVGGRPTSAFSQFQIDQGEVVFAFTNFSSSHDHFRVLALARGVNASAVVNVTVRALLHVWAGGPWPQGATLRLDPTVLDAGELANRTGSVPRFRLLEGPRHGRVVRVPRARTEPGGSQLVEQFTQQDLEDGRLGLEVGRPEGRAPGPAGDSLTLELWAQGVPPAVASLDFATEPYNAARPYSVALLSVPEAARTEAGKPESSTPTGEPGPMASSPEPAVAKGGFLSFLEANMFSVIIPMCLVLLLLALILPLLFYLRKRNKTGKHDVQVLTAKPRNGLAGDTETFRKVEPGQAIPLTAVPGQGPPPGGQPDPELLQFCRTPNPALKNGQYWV

Kd [2]: 0.267 nM | koff [2]: 0.000688 s⁻¹ | kon [2]: 2.58e+06 M⁻¹ s⁻¹
B2: L19 diabody-IL2 fusion protein, 8 amino acid linker (other)
scFv: EVQLLESGGGLVQPGGSLRLSCAASGFTFSSFSMSWVRQAPGKGLEWVSSISGSSGTTYYADSVKGRFTISRDNSKNTLYLQMNSLRAEDTAVYYCAKPFPYFDYWGQGTLVTVSSSGGSGGASEIVLTQSPGTLSLSPGERATLSCRASQSVSSSYLAWYQQKPGQAPRLLIYYASSRATGIPDRFSGSGSGTDFTLTISRLEPEDFAVYYCQQTGRIPPTFGQGTKVEISVLSSSSGSSSSGSSSSG[sequence of about 150 residues omitted]

EC50 (read off the curve) [11]: ~2 nM
B7: MCSP-targeted MHLG1 KV9 Fab-IL2-Fab immunoconjugate (other)
chain: EVQLVESGGGLVKPGGSLRLSCAASGFTFSNYWMNWVRQAPGKGLEWVAEIRLKSNNFGRYYAASVKGRFTISRDDSKNTLYLQMNSLKTEDTAVYYCTTYGNYVGHYFDHWGQGTTVTVSSASTKGPSVFPLAPSSKSTSGGTAALGCLVKDYFPEPVTVSWNSGALTSGVHTFPAVLQSSGLYSLSSVVTVPSSSLGTQTYICNVNHKPSNTKVDKKVEPKSCDSGGGGSGGGGSGGGG[sequence of about 150 residues omitted]SGGGGSGGGGSGGGGEVQLVESGGGLVKPGGSLRLSCAASGFTFSNYWMNWVRQAPGKGLEWVAEIRLKSNNFGRYYAASVKGRFTISRDDSKNTLYLQMNSLKTEDTAVYYCTTYGNYVGHYFDHWGQGTTVTVSSASTKGPSVFPLAPSSKSTSGGTAALGCLVKDYFPEPVTVSWNSGALTSGVHTFPAVLQSSGLYSLSSVVTVPSSSLGTQTYICNVNHKPSNTKVDKKVEPKSCD
light: DIQLTQSPSFLSASVGDRVTITCKASQNVDTNVAWYQQKPGQAPRPLIYSASYRYTGVPSRFSGSGSGTEFTLTISSLQPEDFATYYCQQYNSYPLTFGGGTKVEIKRTVAAPSVFIFPPSDEQLKSGTASVVCLLNNFYPREAKVQWKVDNALQSGNSQESVTEQDSKDSTYSLSSTLTLSKADYEKHKVYACEVTHQGLSSPVTKSFNRGEC
notes: Two Fabs and one IL-2; also called MHLG1 Fab-IL2-Fab

More lines, now with the values behind:

B1: L19 Fab-IL2-Fab immunoconjugate (other)
chain: EVQLLESGGGLVQPGGSLRLSCAASGFTFSSFSMSWVRQAPGKGLEWVSSISGSSGTTYYADSVKGRFTISRDNSKNTLYLQMNSLRAEDTAVYYCAKPFPYFDYWGQGTLVTVSSASTKGPSVFPLAPSSKSTSGGTAALGCLVKDYFPEPVTVSWNSGALTSGVHTFPAVLQSSGLYSLSSVVTVPSSSLGTQTYICNVNHKPSNTKVDKKVEPKSCDSGGGGSGGGGSGGGG[sequence of about 150 residues omitted]SGGGGSGGGGSGGGGEVQLLESGGGLVQPGGSLRLSCAASGFTFSSFSMSWVRQAPGKGLEWVSSISGSSGTTYYADSVKGRFTISRDNSKNTLYLQMNSLRAEDTAVYYCAKPFPYFDYWGQGTLVTVSSASTKGPSVFPLAPSSKSTSGGTAALGCLVKDYFPEPVTVSWNSGALTSGVHTFPAVLQSSGLYSLSSVVTVPSSSLGTQTYICNVNHKPSNTKVDKKVEPKSCD
light: EIVLTQSPGTLSLSPGERATLSCRASQSVSSSYLAWYQQKPGQAPRLLIYYASSRATGIPDRFSGSGSGTDFTLTISRLEPEDFAVYYCQQTGRIPPTFGQGTKVEIKRTVAAPSVFIFPPSDEQLKSGTASVVCLLNNFYPREAKVQWKVDNALQSGNSQESVTEQDSKDSTYSLSSTLTLSKADYEKHKVYACEVTHQGLSSPVTKSFNRGEC
notes: Immunoconjugate: two Fabs and one IL-2; also called Fab-IL2-Fab fusion construct; Fab-L19
Kd [1]: 0.312 nM | koff [1]: 0.000904 s⁻¹ | kon [1]: 2.89e+06 M⁻¹ s⁻¹

B3: F16 Fab-IL2-Fab immunoconjugate (other)
chain: EVQLLESGGGLVQPGGSLRLSCAASGFTFSRYGMSWVRQAPGKGLEWVSAISGSGGSTYYADSVKGRFTISRDNSKNTLYLQMNSLRAEDTAVYYCAKAHNAFDYWGQGTLVTVSSASTKGPSVFPLAPSSKSTSGGTAALGCLVKDYFPEPVTVSWNSGALTSGVHTFPAVLQSSGLYSLSSVVTVPSSSLGTQTYICNVNHKPSNTKVDKKVEPKSCDSSSSGSSSSGSSSSG[sequence of about 150 residues omitted]SGGGGSGGGGSGGGGEVQLLESGGGLVQPGGSLRLSCAASGFTFSRYGMSWVRQAPGKGLEWVSAISGSGGSTYYADSVKGRFTISRDNSKNTLYLQMNSLRAEDTAVYYCAKAHNAFDYWGQGTLVTVSSASTKGPSVFPLAPSSKSTSGGTAALGCLVKDYFPEPVTVSWNSGALTSGVHTFPAVLQSSGLYSLSSVVTVPSSSLGTQTYICNVNHKPSNTKVDKKVEPKSCD
light: SSELTQDPAVSVALGQTVRITCQGDSLRSYYASWYQQKPGQAPVLVIYGKNNRPSGIPDRFSGSSSGNTASLTITGAQAEDEADYYCNSSVYTMPPVVFGGGTKLTVLGQPKAAPSVTLFPPSSEELQANKATLVCLISDFYPGAVTVAWKADSSPVKAGVETTTPSKQSNNKYAASSYLSLTPEQWKSHRSYSCQVTHEGSTVEKTVAPTECS
notes: also called Fab-IL2-Fab (F16)
Kd [3]: 7.4 nM | Kd [4]: 7.4 nM

B4: F16-diabody-IL2 protein (other)
scFv: EVQLLESGGGLVQPGGSLRLSCAASGFTFSRYGMSWVRQAPGKGLEWVSAISGSGGSTYYADSVKGRFTISRDNSKNTLYLQMNSLRAEDTAVYYCAKAHNAFDYWGQGTLVTVSSASGGSSELTQDPAVSVALGQTVRITCQGDSLRSYYASWYQQKPGQAPVLVIYGKNNRPSGIPDRFSGSSSGNTASLTITGAQAEDEADYYCNSSVYTMPPVVFGGGTKLTVLGSSSSGSSSSGSSSSG[sequence of about 150 residues omitted]
notes: Bivalent for the antigen and for IL-2; also called F16 dia IL2; the diabody
Kd [4]: 0.81 nM | Kd [5]: 0.81 nM

Binder: B5
Kd [6]: 0.495 nM | Kd [7]: 0.495 nM | koff [7]: 0.000369 s⁻¹ | kon [7]: 745000 M⁻¹ s⁻¹

B6: F16 scFv-IL2-scFv immunoconjugate (other)
chain: EVQLLESGGGLVQPGGSLRLSCAASGFTFSRYGMSWVRQAPGKGLEWVSAISGSGGSTYYADSVKGRFTISRDNSKNTLYLQMNSLRAEDTAVYYCAKAHNAFDYWGQGTLVTVSRGGGGSGGGGSGGGGSSELTQDPAVSVALGQTVRITCQGDSLRSYYASWYQQKPGQAPVLVIYGKNNRPSGIPDRFSGSSSGNTASLTITGAQAEDEADYYCNSSVYTMPPVVFGGGTKLTVLGSSSSGSSSSGSSSSG[sequence of about 150 residues omitted]SGGGGSGGGGSGGGGSSELTQDPAVSVALGQTVRITCQGDSLRSYYASWYQQKPGQAPVLVIYGKNNRPSGIPDRFSGSSSGNTASLTITGAQAEDEADYYCNSSVYTMPPVVFGGGTKLTVLGSGGGSGGGSGGGSGSEVQLLESGGGLVQPGGSLRLSCAASGFTFSRYGMSWVRQAPGKGLEWVSAISGSGGSTYYADSVKGRFTISRDNSKNTLYLQMNSLRAEDTAVYYCAKAHNAFDYWGQGTLVTVS
notes: also called scFv-IL2-scFv (F16, protein)
Kd [8]: 2.5 nM | Kd [9]: 11.5 nM | Kd [4]: 2.5 nM | Kd [10]: 11.5 nM
